Test results taken from the supplement of paper PMC10126150.
Sequences with one replicate were seen in a single cluster, so their values are uncertain.

System: ATP
Test: switch fluorescence ratio, 500 uM ATP over buffer (Cy3 cluster intensity, sum of 5 cycles each) (fold (ratio)); higher = stronger signal-on switching upon ATP binding; sequences stand for … in TCGTCGGCAGCGTCAGATGTGTATAAGAGACAGTTTTTTTTTTTTTTTTTTTTTTTTT…TC
Details: aptamer strand: ATP DNA aptamer (quencher-CACCTGGGGGAGTATTGCGGAGGAAGG + anchor), 100 nM annealed; ATP concentration: 500 uM; one replicate
In short: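 Switching-strand clusters labelled with Cy3 on a modified Illumina MiSeq flow-cell were annealed to 100 nM quencher-labelled ATP aptamer, imaged in selection buffer, and re-imaged after 15 min with 500 uM ATP at 22 °C. This was done over five cycles with NaOH stripping and re-annealing in between. The fluorescence ratio is summed target-cycle over summed buffer-cycle Cy3 intensity per cluster, averaged per switch-domain sequence, excluding clusters outside 100-1000 RFU.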
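Also: ATP exposure 15 min at 22 °C before imaging.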

Row | Sequence | switch fluorescence ratio
1 | GCTTCTTATT | 1.02
2 | TATCATTTGA | 0.943
3 | CCCTGGTGA | 1.04
4 | GGCCGGCGGT | 1.01
5 | TCGCATTTGT | 1.06
6 | CGATTGATAG | 0.986
7 | CGGCGTCAAT | 2.47
8 | ATATTTAAGA | 1.03
9 | TGAAGCCTC | 3.36
10 | GCATGGCTAC | 1.04
11 | GCAGACTACC | 1.92
12 | ATAAGACCG | 0.963
13 | CTCCAGGAGC | 1.22
14 | CAGCCCAAGA | 1.1
15 | ACACGAGCTT | 1.01
16 | GTTTGTTTAT | 0.989
17 | CAAACATGCT | 1.03
18 | GGTGTCCACA | 0.995
19 | CCGCCGAGAA | 2.51
20 | TTAATTCGGA | 0.954
21 | TGGAGTGTT | 0.998
22 | CTGGGCATGG | 1.04
23 | TGTGTCCTGT | 0.984
24 | ATAGAGCGAA | 1.03
25 | TGGATGTCAC | 1.06
26 | AGTATGCTAC | 1.06

Row | Sequence | switch fluorescence ratio
27 | AGTGCACCAT | 1.03
28 | TCTTGATCTC | 1.01
29 | GAGACGGGCA | 1.04
30 | TTGGGGAT | 1
31 | TAGCCTGACT | 1.16
32 | TATCTCAGAT | 0.985
33 | TCGAACCTCA | 1.07
34 | AAATGCGCTC | 1.04
35 | TTCGCTTAAG | 0.97
36 | CACAGGATGA | 1.01
37 | ATACTTTAAG | 1.04
38 | ATAGGGTCGC | 0.972
39 | TGGCAAATTC | 1
40 | GAGCTGAACC | 0.99
41 | TGCTAAAGTA | 1
42 | GAATGGCAGC | 1.02
43 | AGCGGGTGAC | 1.05
44 | TTATAGTCGG | 1.02
45 | CCGGTGCCCC | 2.69
46 | CACTATACAC | 1.37
47 | TCCACTTTTT | 0.972
48 | AGGTATATTT | 1.02
49 | CTGGAGCGAA | 3.68
50 | TCAGCCAA | 1.02
51 | AGATTGGCAG | 0.97
52 | ACGAAAACTA | 0.982

Row | Sequence | switch fluorescence ratio
53 | CCCCTTGTTG | 1.32
54 | CTGAGAGTGA | 1.01
55 | GGATGGAGTA | 0.969
56 | GCGTTTCTAA | 0.977
57 | TGCGAGGGAC | 1.01
58 | TTCTACTATC | 1.02
59 | TCGGTGCCGT | 1.02
60 | AGATTTATTC | 1.01
61 | GCATTAGGCG | 1.03
62 | GTAACGCAAG | 1.07
63 | TTCGTGTTA | 1
64 | GTCGGGGCTT | 1.02
65 | CAAGTTTCCC | 0.978
66 | TAACGCCATT | 1.06
67 | CAGTCGGG | 1.05
68 | GGGATTAGCT | 1
69 | ATGCGATGCG | 1.05
70 | GATCCCGGAG | 1.01
71 | TTCACTCAAA | 1.33
72 | GAATGCGCTG | 1.02
73 | CACAGCTACG | 1.1
74 | CGTTACCCAC | 1.51
75 | ATCTCGCGTT | 0.961
76 | AAAAACGCGA | 1.32
77 | CTGTAAAACT | 1.01
78 | TTTTAACACG | 1.02

Row | Sequence | switch fluorescence ratio
79 | TAACTCTATG | 0.967
80 | TAATTATAA | 1.04
81 | GAGATCAGGT | 0.981
82 | ATGATTCGAC | 1.01
83 | GTTTCTACAT | 0.97
84 | GTCCGGTGTG | 0.993
85 | CCAAGGCGGA | 1.04
86 | CATGGCAGAG | 1.02
87 | CCCTTGTTGA | 0.957
88 | ACGGGAGTTT | 0.978
89 | CCGGAACATT | 1.28
90 | TTCATAACCT | 1.3
91 | CCTCAATAGG | 1.53
92 | ACGGGTGTCA | 0.981
93 | TGGGGCGTGT | 1.02
94 | TTGAGAGATC | 1.05
95 | TTATAAGTCG | 0.947
96 | CGTGATCGCC | 0.97
97 | GCAAGTTGAG | 1.01
98 | ATTGAAGTAG | 1.02
99 | ACTGGCATGC | 1.04
100 | ATTACGTGTT | 0.998
101 | ACTGTCGTGA | 1
102 | ATGTTGGATG | 1.02
103 | GTACTTATAA | 1.05
104 | CATTCACGTC | 1.02

Row | Sequence | switch fluorescence ratio
105 | TTCTTGACAG | 1.01
106 | CTTGTGCGTG | 0.982
107 | GATGACACTC | 1.02
108 | TGAATTGACT | 0.999
109 | AATCGAGTTC | 1.01
110 | TCGGGGCCTA | 1.02
111 | AATAGTCTCA | 1.01
112 | GCTGTACGGC | 1.05
113 | CTTGTACCCC | 1.12
114 | CATTACTTTA | 1.07
115 | ATAAGACGT | 0.978
116 | ATGGACAGCT | 1.08
117 | GTAGTAACCT | 1.69
118 | CCAGGACCGC | 1.2
119 | CGGACCTCAC | 1.45
120 | TGACGTATGA | 1
121 | AAGTAACATT | 1.05
122 | GAAGAAAGTA | 0.965
123 | TAAAACGCAG | 1.02
124 | CCTCTTACTG | 1.1
125 | CGGTAGGAGT | 1.02
126 | ATGCATTTG | 1.07
127 | GTGAAACGAT | 0.965
128 | CACGGGCATC | 1.06
129 | TTTTGTACCC | 0.959
130 | TTAGGTCTA | 1.01

Row | Sequence | switch fluorescence ratio
131 | AGTCTGTATC | 0.989
132 | GTTTAGCTTT | 0.999
133 | CTTGGACGGA | 0.976
134 | TGTTGGCCTT | 0.968
135 | TTCTCGCTGC | 1.62
136 | AGTTTATTTA | 1.01
137 | ACTGGTAAAT | 0.969
138 | TTTTTAGAAC | 1.07
139 | GTGTAGGCTA | 0.967
140 | GCAAGTGCCC | 1.07
141 | CGTGTACGG | 1
142 | GCGATCGGGT | 1
143 | TAGGCCAAGA | 1.03
144 | ATGTCTAGAG | 0.967
145 | AGAGACGGTA | 1.04
146 | TTAGTTTTA | 1.03
147 | ATTGATTAGC | 1
148 | CGTGTAAATC | 1.01
149 | TCAACTATA | 1.04
150 | GTGCGAGACG | 0.968
151 | TTATCGAAAG | 1.02
152 | CTTAGACCAC | 0.973
153 | TCAGAGTTGG | 0.978
154 | ATCTACGTCT | 0.977
155 | TGCAATTCAA | 1.05
156 | CTTGGTGTTT | 0.983

Row | Sequence | switch fluorescence ratio
157 | TATCAAGTAT | 1
158 | AAAAGCAGTA | 1.04
159 | GGAGGGTAGT | 0.993
160 | TATGGGACAG | 0.954
161 | GGTGCAGGCC | 1.01
162 | GTTGGGCGTG | 1.01
163 | ATTATTCGTA | 0.995
164 | AGAATAAAGA | 0.983
165 | ATCCTTACAA | 1.04
166 | TGGCGCGACG | 0.99
167 | TAGGAATAGC | 1.01
168 | GCCATTAATT | 0.982
169 | TATTCAAGAT | 1.01
170 | CCAACTGGAT | 0.992
171 | GAAGGATGAC | 1.05
172 | AAGCGCGGGG | 1.04
173 | GCCTAAGATC | 1.03
174 | GGACAGCCAC | 1.18
175 | TTATAGTTCG | 1.03
176 | TCGGACGATG | 0.935
177 | CATTTCATGC | 0.981
178 | GGGGCAAGGT | 1.03
179 | TACATTCCT | 1.61
180 | TTTTTCCCAC | 1.13
181 | GACTCTGGT | 0.942
182 | TTAACAAACC | 1.01

Row | Sequence | switch fluorescence ratio
183 | AGTCAGCGAT | 1.2
184 | TGGGAGCACA | 1.02
185 | CCTTGCTGGG | 1.09
186 | ATAACCAAAG | 1.02
187 | CGGCGATCTG | 1.01
188 | GGACGCCCAC | 2.8
189 | TACTTTGTTA | 1.04
190 | GTAAACGTGC | 1
191 | CGACCCGTTT | 1.02
192 | CTAATTCGTT | 1
193 | GGGATGCAT | 1.01
194 | CAAGTAGGTT | 1.2
195 | GACTATATGT | 0.981
196 | TGGGAATGAT | 1.01
197 | ATTTGTGTAA | 0.996
198 | TTACGGCAGA | 1.08
199 | CCGGGGTAAA | 1.04
200 | GCACGACGG | 1.08
201 | TGGTCGGCTA | 1.08
